Measured values as given in PubChem BioAssay AID1476 (National Center for Advancing Translational Sciences (NCATS), 2009).
About 4,500 (2.2%) of roughly 200,000 compounds were called active. The inconclusive results got no clear call from the source; some entries with a clear call stand among them for comparison. Calls follow the shape of the dose curve; as a rule, active = well fitted inhibition curve with a large enough effect; inconclusive = small, poorly fitted or top-dose-only effect, or effect the other way; inactive = flat fitted curve, though single readings scatter. Where the call is inconclusive, the potency comes from a doubtful curve fit.

The compounds below were run against Cruzipain (Trypanosoma cruzi) (UniProt P25779) (assay: qHTS Assay for Promiscuous and Specific Inhibitors of Cruzain (without detergent)). Conditions: purified cruzain, Z-FR-AMC fluorescence, no detergent.
Chain of UniProt P25779 (P25779 whole entry, looked up): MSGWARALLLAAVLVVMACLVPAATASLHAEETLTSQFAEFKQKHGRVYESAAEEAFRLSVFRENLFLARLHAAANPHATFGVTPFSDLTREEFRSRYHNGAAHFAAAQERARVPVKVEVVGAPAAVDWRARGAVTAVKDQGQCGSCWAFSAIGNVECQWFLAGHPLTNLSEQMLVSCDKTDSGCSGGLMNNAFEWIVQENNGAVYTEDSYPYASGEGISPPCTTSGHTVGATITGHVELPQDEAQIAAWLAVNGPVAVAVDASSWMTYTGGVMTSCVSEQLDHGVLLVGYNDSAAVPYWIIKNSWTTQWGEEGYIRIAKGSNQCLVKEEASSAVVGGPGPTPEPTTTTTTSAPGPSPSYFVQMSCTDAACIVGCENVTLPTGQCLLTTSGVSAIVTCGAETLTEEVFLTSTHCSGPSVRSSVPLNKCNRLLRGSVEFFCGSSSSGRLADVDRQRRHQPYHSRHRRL
Summary of the method: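 Purified cruzain at 1.5 nM, pre-incubated 15 min with compound at room temperature in 100 mM sodium acetate pH 5.5, 5 mM DTT, 0.00005% Triton X-100. Reaction started with 2 uM Z-FR-AMC; AMC fluorescence increase over 60 s gives rate.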
Also: nearly all actives have a fitted effect of over 40% in size.
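For max response, negative = inhibition in this document: plate controls were enzyme without inhibitor for no effect and buffer without enzyme for full effect.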
Potency is read from the fitted curve at half-maximal effect; tags tell the direction and shape of the fitted curve.

SMILES	Potency	max response, negative = inhibition
Oc1ccc(C2C(c3ccccc3)=NN=C(c3ccc(Cl)cc3)N2O)c(O)c1 (stereo not given)	inconclusive: 39.8 µM [inhibitor, single point]	–
O=C(c1ccc2c(c1)N(Cc1cccc(F)c1)C(=O)c1ccccc1S2)N1CCCC1	inconclusive: 20 µM [activator, single point]	–
CCCCc1ccc(C2C3=C(CC(C)(C)CC3=O)NC3=C2C(=O)c2ccccc23)cc1 (stereo not given)	inconclusive: 39.8 µM [inhibitor, single point]	–
CC(C)c1ccc(NC(=O)C(c2ccccc2)N2CCN(C=O)CC2)cc1 (stereo not given)	inconclusive: 3.16 µM [inhibitor, partial curve, poor fit]	–
O=C(CN1C(=O)CCn2nc(-c3ccccc3)cc21)NCc1ccc(Cl)cc1	inconclusive: 39.8 µM [activator, single point]	–
CCc1cc2c(cc3c(=O)n(CCCC(=O)NCc4cccc(Cl)c4)ncn32)s1	–	inactive: -4.14%
O=C(COC(=O)[C@H](Cc1ccccc1)NC(=O)c1cccs1)Nc1cc(F)ccc1F	inconclusive: 20 µM [inhibitor, partial curve, poor fit]	–
O=S(=O)(NCc1nc2cccnc2n1Cc1ccccc1Cl)c1ccc2c(c1)CCCC2	–	inactive: -1.84%
Cc1cc2cc(CNS(=O)(=O)c3ccc4ccccc4c3)ccc2n1C	active: 25.1 µM	–
O=C(OCC(=O)N1CCCc2ccccc21)c1cccc(S(=O)(=O)N2CCc3ccccc32)c1	inconclusive: 39.8 µM [inhibitor, single point]	–
Cc1nnc(SCC(=O)Nc2ncc(S(=O)(=O)c3ccc([N+](=O)[O-])cc3)s2)s1	inconclusive: 39.8 µM [inhibitor, single point]	–
CCCn1c(=N)c(C(=O)NCC2CCCO2)cc2c(=O)n3cccc(C)c3nc21 (stereo not given)	inconclusive: 39.8 µM [inhibitor, single point]	–
O=C(Nc1nc2c(s1)CCCC2)c1cccc(S(=O)(=O)N2CCCc3ccccc32)c1	active: 25.1 µM	–
CCN(Cc1ccccc1)c1ccc(/C=N/NC(=S)NC(C)C)cc1	inconclusive: 31.6 µM [inhibitor, single point]	–
C#CCn1c(S(=O)(=O)Cc2ccc(OC)cc2)nc(-c2ccccc2)c1-c1ccccc1	inconclusive: 39.8 µM [inhibitor, single point]	–
COc1cc(NS(=O)(=O)c2ccc(N/C=C\C(=O)c3ccc(F)cc3)cc2)nc(OC)n1	inconclusive: 25.1 µM [activator, partial curve]	–
Cc1ccc(Nc2nc(CSc3nnc(-c4cccnc4)n3-c3ccccc3C)cs2)cc1	inconclusive: 31.6 µM [inhibitor, single point]	–
Cc1ccc(S(=O)(=O)NCC2CCC(C(=O)NCCCOC(C)C)CC2)cc1 (stereo not given)	inconclusive: 39.8 µM [activator, single point]	–
CCc1ccc2[nH]c(=O)c(CN(Cc3ccccc3)C(=O)Nc3ccccc3OC)cc2c1	inconclusive: 39.8 µM [inhibitor, single point]	–
CC1(C)Cc2c(C#N)c(OCC(=O)c3ccc(Cl)cc3)nc(-c3ccco3)c2CO1	inconclusive: 39.8 µM [inhibitor, single point]	–

SMILES	Potency	max response, negative = inhibition
O=C(COC(=O)CNC(=O)c1ccccc1)Nc1ccc(Cl)cc1C(F)(F)F	active: 12.6 µM	–
O=C(/C=C/c1ccccc1)N1c2ccccc2Sc2ccc(C(F)(F)F)cc21	inconclusive: 39.8 µM [inhibitor, single point]	–
Cc1ccc2cc(C3CC(c4ccco4)=NN3S(=O)(=O)c3ccccc3)c(Cl)nc2c1 (stereo not given)	inconclusive: 31.6 µM [inhibitor, single point]	–
CCc1c(C)nc2nncn2c1NCc1ccc(Cl)cc1	–	inactive: 4.93%
COc1ccc(CCn2c(C)ccc2C)cc1OC	inconclusive: 39.8 µM [activator, single point]	–
S=C(c1cn(CCOc2ccccc2)c2ccccc12)N1CCCC1	inconclusive: 31.6 µM [inhibitor, single point]	–
Cc1cc(OCCSc2nnc(-c3cccs3)n2C)ccc1Cl	–	inactive: 16.1%
CCCOc1ccc(/C=N/Nc2ccccc2[N+](=O)[O-])c(OCCC)c1	inconclusive: 2.51 µM [inhibitor, single point]	–
Cc1[nH]c2ccccc2c1C1=NNC(=Nc2ccc(F)cc2)SC1	inconclusive: 39.8 µM [inhibitor, single point]	–
Cc1ccc(-n2ncc3c(=O)n(CC(=O)NC4CCCCC4)cnc32)cc1	inconclusive: 39.8 µM [inhibitor, single point]	–
CCS(=O)(=O)c1ncc(N(Cc2ccco2)Cc2ccccc2F)c(C(=O)Nc2cccc(Cl)c2)n1	active: 20 µM	–
CCCOc1ccc(N2C(=O)CC(N3CCN(c4nc5ccccc5s4)CC3)C2=O)cc1 (stereo not given)	inconclusive: 20 µM [activator, partial curve, poor fit]	–
CC1CCN(C(=O)CSc2nnc(Cc3cccn3C)n2-c2ccc(F)cc2)CC1	inconclusive: 25.1 µM [activator, single point]	–
Cc1ccc(N2CCN(C(=O)c3cn(C)c4ccc(S(=O)(=O)N(C)C)cc4c3=O)CC2C)cc1 (stereo not given)	inconclusive: 31.6 µM [activator, single point]	–
COc1ccccc1/C=C/C=N/n1c(-c2cc(C)[nH]n2)n[nH]c1=S	–	inactive: 3.58%
COc1cc2nc(SCc3ccc(Cl)cc3Cl)n(Cc3cccs3)c(=N)c2cc1OC	active: 7.94 µM	–
N#Cc1c(NC(=O)CSC2=NCCS2)sc2c1CCCC2	inconclusive: 31.6 µM [inhibitor, single point]	–
C/C(=C\c1ccco1)C1Nc2cccc3cccc(c23)N1	active: 3.16 µM	–
Cc1ccc(-c2ccc(/C=C3\C(=O)ON=C3c3ccccc3)o2)c([N+](=O)[O-])c1	inconclusive: 7.94 µM [activator, single point]	–
COc1cc(C(=O)NCC(c2ccc(Cl)cc2)N2CCOCC2)cc(OC)c1OC (stereo not given)	–	inactive: 9.67%
